Reference: PubChem BioAssay AID1346428 (National Center for Advancing Translational Sciences (NCATS), 2018)
About 1,200 (2.5%) of roughly 48,000 compounds were called active. Inconclusive results (about 2%) are left out.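 The calls were made as follows: active = activation of at least 60% and not above a set upper limit (about 1 call in 100 departs from these limits); inconclusive = activation of 40% to 60%, or above that upper limit; inactive = activation under 40%.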 The list shows a part of the results.

Target: Probable G-protein coupled receptor 32 (Homo sapiens) (UniProt O75388)
Chain of UniProt O75388 (O75388 whole entry, looked up): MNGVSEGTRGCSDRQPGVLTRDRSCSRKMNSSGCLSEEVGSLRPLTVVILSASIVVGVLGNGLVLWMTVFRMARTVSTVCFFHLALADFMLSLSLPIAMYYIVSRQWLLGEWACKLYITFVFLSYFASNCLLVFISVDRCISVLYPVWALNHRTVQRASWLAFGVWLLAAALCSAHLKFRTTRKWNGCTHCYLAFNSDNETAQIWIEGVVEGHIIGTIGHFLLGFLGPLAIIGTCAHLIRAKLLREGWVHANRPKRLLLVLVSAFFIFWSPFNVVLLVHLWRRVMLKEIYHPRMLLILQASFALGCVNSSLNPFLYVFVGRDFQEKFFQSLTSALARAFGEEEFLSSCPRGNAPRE
Experiment: qHTS for Agonists of Human Resolvin D1 Receptor DRV1; also: 0% is about no effect
Details: CHO-K1 GPR32 beta-arrestin PathHunter luminescence, 90 min; at 76.9 µM; hits give high values; zero percent set by DMSO-only wells
Procedure, shortened: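 Using DMSO wells as EC0, agonist-induced signal was taken as chemiluminescence from beta-Gal reconstituted upon beta-arrestin recruitment to GPR32 in CHO-K1 cells after 90 min compound treatment.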

activation, inactive:
Cc1cccc(C)c1NC(=O)c1ccc2c(c1)N(Cc1cccc(Cl)c1)C(=O)c1ccccc1S2=O (stereo not drawn) -12.5%
Cc1ccc(C(=O)N(Cc2sccc2C)C2CCS(=O)(=O)C2)cc1 (stereo not drawn) -10.9%
COc1ccccc1NC(=O)N1c2ccccc2Sc2ccccc21 -19.2%
COc1ccc(OC)c(-n2nnc3c(sc4nc(C)c(Br)c(C)c43)c2=O)c1 -2.3%
Cc1nc(C)c(-c2ccc(SCC(=O)Nc3ccc(Cl)c(Cl)c3)nn2)s1 36.7%
Cc1cccc(N2CCN(C(=O)c3cc4c(=O)oc5ccccc5c4s3)CC2C)c1 (stereo not drawn) 27.6%
COc1ccc(CCC(C)=O)cc1 -8.68%
CC(C)CN(CC(C)C)C(=O)C1CCCN(S(=O)(=O)c2ccc3c(c2)oc(=O)n3C)C1 (stereo not drawn) -1.39%
COc1cccc(NC(=O)c2nn(-c3ccc(C)cc3)c(=O)n(C)c2=O)c1 -17.2%
Cc1cc(C)c2nc(N3CCCC(C(=O)NCc4cccc(Cl)c4)C3)sc2c1 (stereo not drawn) -4.7%
COc1ccc(CNS(=O)(=O)c2cc3c(cc2C)n(C)c(=O)c(=O)n3C)cc1 -5.53%
Cc1ccc(NS(=O)(=O)c2ccc3c(c2)NC(=O)C(C)C(=O)N3)cc1F (stereo not drawn) -7.01%
CCc1ccc(CNC(=O)c2ccc3nc(SCc4ccc(F)cc4)n(C)c3c2)cc1 14.2%
Cc1ccc(NC(=O)CSc2cc(=O)n(C)c3ccc(Cl)cc23)c(Br)c1 -1.51%
CC(NC(=O)c1ccc2c(c1)N(Cc1cccc(F)c1)C(=O)c1ccccc1S2)c1ccccc1 (stereo not drawn) -22.7%
Cc1ccc(NC(=O)c2cnn(-c3ccc(C)c(C)c3)c2C2CCN(C(=O)OC(C)(C)C)CC2)c(C)c1 -28.1%
Cc1cccc(NC(=O)Cn2c(=O)n(CCC(C)C)c(=O)c3cccnc32)c1 -2.15%
CCCCN(C)CCNC(=O)c1c(C)oc2ncnc(N3CCOCC3)c12 -13%
COc1cc(NC(=O)CN2C(=O)C(c3ccc(C)cc3)=NC23CCCCC3)cc(OC)c1 -28.8%
Cc1oc2ccc(O)c(CN3CCOCC3)c2c1C(=O)Nc1ccccc1 -2.76%
Cc1ccc(CNc2ccc(-c3nc(C(C)C)no3)cc2[N+](=O)[O-])cc1 -12.5%
Cc1ccc(-n2nc(C(=O)N3CCN(c4cccc(C(F)(F)F)c4)CC3)c(=O)n(C)c2=O)cc1 -5.79%
O=C(CCSCCc1ccccn1)Nc1cc(F)ccc1F -0.329%
